Experimental data reported in PubChem BioAssay AID1963576 (National Center for Advancing Translational Sciences (NCATS), 2024).
Out of some 46,000 compounds screened, about 60 (0.1%) were called active. Inconclusive results (about 3%) are left out. Calls come from the whole dose curve; as a rule, active = well fitted inhibition curve with a large enough effect; inconclusive = small, poorly fitted or top-dose-only effect; inactive = no such curve, though single readings can be large or run the other way. Some of the results follow.

test: Primary qHTS assay for Inhibitors of ovarian cancer metastasis using an organotypic tumor microenvironment (TME) model.; note: nearly all actives have a fitted effect of over 65% in size; conditions: SKOV3ip1-GFP adhesion/invasion on 3D omental model, fluorescence; series mostly up to 45.8 µM; activity change, negative = inhibition: at the top concentration
Description: PI: Ernst Lengyel MD., Ph.D. Department of Obstetrics and Gynecology, Section of Gynecologic Oncology University of Chicago Medicine, Chicago, Illinois. The tumor microenvironment (TME) is a key determinant of metastatic efficiency. We performed a quantitative high-throughput screen (qHTS) of diverse medicinal chemistry tractable scaffolds (44,420 compounds) and pharmacologically active small molecules (386 compounds) using a layered organotypic, robust assay representing the ovarian cancer metastatic TME. This 3D model contains primary human mesothelial cells, fibroblasts, and extracellular matrix, to which fluorescently labeled ovarian cancer cells are added. Initially, 100 compounds inhibiting ovarian cancer adhesion/invasion to the 3D model in a dose-dependent manner were identified. Of those, eight compounds were confirmed active in five high-grade serous ovarian cancer cell lines and were further validated in secondary in vitro and in vivo biological assays. […] Specifically, NCGC00117362 and PP-121 inhibited ovarian cancer adhesion, invasion, and proliferation, whereas milciclib inhibited ovarian cancer invasion and proliferation. […] To evaluate the clinical potential of NCGC00117362, structure - activity relationship studies were performed. […] The three compounds identified have promise as therapeutics for prevention and treatment of ovarian cancer metastasis.
PROTOCOL TABLE (as described by Inglese J, Shamu CE and Guy RK. 2007) SEQUENCE No. (e.g., 1, 2, 3, etc.); […] (e.g., Cells, Incubation, Reagent, etc.); VALUE; DESCRIPTION. 1; Cells; 4 uL; primary human omental fibroblast, black, clear bottom, low base, 1536-well Aurora assay plate. 2; Incubation; 48 hr; 37C. 3; Cells; 3 uL; 1,200 SKOV3ip1-GFP cells. 4; Compounds; 23nL; acoustic dispenser. 5; Incubation; 2 hr; room temperature. 6; Incubation; 16 hr; 37C. 7; Wash; 5 uL; 1x PBS. 8; Fixing; 5 uL; 4% paraformaldehyde (PFA). 9; Incubation; 15 min; room temperature 10; Wash, 5 uL; 1x PBS. 11; Detection; Fluorescence, excitation filter 488 nm, emission filter 509 nm. NOTES (numbers refer to Sequence numbers above) 1. For the 1,536-well format, 40 primary human omental fibroblasts and 400 mesothelial cells were seeded with 0.02 µg fibronectin and 0.02 µg collagen type I in 4 µL of growth media (2.3 mm2; Supplementary Fig. S1A). 2. Assay plates were incubated for 48 hours at 37 C. 3. After incubation, 1,200 SKOV3ip1-GFP were seeded in 3 µL of serum-free media (growth media minus FBS) on top of primary human omental cells. 4. Compounds or controls were added to each well immediately after the addition of the cancer cells. Compounds were screened in four doses (0.36-46 µmol/L), and the plates contained the positive control (Tomatine) in eight doses (0.035-75 µmol/L) and DMSO (equal volume controls) 5 - 6. The plates were incubated at room temperature for 2 hours and then at 37 degrees C for 16 hours. 7 - 10. Following incubation, the media were aspirated and each well washed with PBS (5 µL) and then fixed with 4% paraformaldehyde (PFA; 5 µL). After 15 minutes, the PFA solution was aspirated, PBS (5 µL) was added. 11. The number of GFP-labeled cells analyzed using a fluorescent cytometer TTP LabTech Acumen eX3 using 488 nm excitation filter and 509 nm emission filter. Data was normalized to the DMSO treated for negative and Tomatine treated wells for positive control. REFERENCES: Inglese J, Shamu CE and Guy RK, Reporting data from high throughput screening of small molecule libraries, Nature Chemical Biology, 2007, 3(8): 438-441. doi.org/10.1038/nchembio0807-438. Yasgar A, Shinn P, Jadhav A, Auld DS, Michael S, Zheng W, Austin CP, Inglese J and Simeonov A, Compound Management for Quantitative High-Throughput Screening. J. Assoc. Lab. Auto., 2008, 13: 79-89. doi: 10.1016/j.jala.2007.12.004.

Compound	activity change, negative = inhibition	outcome
COc1ccc(C)cc1NC(=O)C1CCCN(S(=O)(=O)c2ccc3c(c2)CCCN3C(C)=O)C1 (centres undefined)	inactive: 2.2%	
CCC(C)NS(=O)(=O)c1ccc(N2CCCCS2(=O)=O)cc1 (centres undefined)	inactive: -7.06%	
CCCCNC(=O)CCCN1C(=O)CCn2nc(-c3cccn3C)cc21	inactive: -6.72%	
CCOCCCNC(=O)CN1C(=O)c2cccnc2Sc2ccccc21	inactive: 3.19%	
COc1cccc(NC(=O)Cn2c(=O)n(-c3cccc(OC)c3)c(=O)c3sc4ccccc4c32)c1	inactive: 4.35%	
Cc1ccc(Cl)cc1N1CCN(C2(c3ccccc3)C(=O)c3ccccc3C2=O)CC1	inactive: -14.2%	
CCC(C)(C)NC(=O)C1CCC(CNS(=O)(=O)c2ccc3c(c2)CC(C)N3C(C)=O)CC1 (centres undefined)	inactive: -5.8%	
COCCNC(=O)CSc1nc2cc3c(cc2c(=O)n1CCCC(=O)NCCc1ccc(OC)c(OC)c1)OCO3	inactive: 1.84%	
CCC(CC)C(=O)Nc1nnc(SCc2cc(=O)c3ccccc3[nH]2)s1		inactive
COc1ccc2c(CNCc3ccco3)c(C(=O)O)n(Cc3ccc(F)cc3Cl)c2c1	inactive: 4.06%	
O=C(Cn1c(SCCOc2ccccc2Cl)nc2ccccc21)N1CCOCC1	inactive: -14.8%	
Fc1ccccc1N1CCN(c2nnc(C(F)(F)F)c3nnn(Cc4ccccc4)c23)CC1		inactive
CCN(CC)CCn1c(=O)c(Cc2ccc(OC)cc2)nc2ccccc21	inactive: 5.88%	
CN(C)S(=O)(=O)N(CC(=O)Nc1ccc(Br)cc1F)c1ccccc1	inactive: -3.93%	
COc1ccc(CCNc2ncnc3c2nnn3C)cc1OC	inactive: 14.5%	
CCc1ccc(NC(=O)CSc2nc(-c3ccccc3)no2)cc1	inactive: -3.63%	
CCc1ccc(NC(=O)C(=O)NCCc2sc(-c3ccc(OC)c(OC)c3)nc2C)cc1	inactive: 9.17%	
COc1cc(OC)cc(C(=O)NCCc2csc(-c3cccc(C)c3)n2)c1	inactive: -15.1%	
CC1CCCCN1C(=O)c1ccc2c(c1)N(Cc1ccc(Cl)cc1)C(=O)c1ccccc1S2=O (centres undefined)	inactive: 5.3%	
Cc1c(C(=O)Nc2cccc(F)c2)sc2nc(-c3cc4ccccc4oc3=O)[nH]c(=O)c12	inactive: -6.82%	
COc1ccc(NC(=O)c2c(NCc3cccs3)sc3c2CCCCC3)cc1	inactive: -9.61%	
CN(C1CCCCC1)S(=O)(=O)c1ccc(F)c(C(=O)Nc2ccc(C(F)(F)F)cc2)c1	inactive: -1.56%	
Cc1ccc(-n2nc(C)c3c(C)cc(=O)n(CC(=O)Nc4ccc(C(C)C)cc4)c32)cc1	inactive: 4.28%	
COc1cccc(C(c2sc3nc(-c4ccco4)nn3c2O)N2CCCC2)c1 (centres undefined)	inactive: -0.148%	
Cc1nnc(N2CCN(c3ccc(Cl)cc3)CC2)c2c1nnn2Cc1ccc(F)cc1	inactive: -2.46%	

Compound	activity change, negative = inhibition	outcome
CC(C)C(=O)NC1CC(=O)N(c2ccc3c(c2)OCCO3)C1 (centres undefined)	inactive: -0.78%	
COc1ccccc1Cn1ccn(CC(=O)Nc2c(C)cc(C)cc2C)c(=O)c1=O	inactive: -6.83%	
O=C(Nc1cccc(Cl)c1)C1CCN(c2nc3ccccc3nc2C(F)(F)F)CC1		inactive
CCc1cccc(NC(=O)c2cc(-c3ccccc3)n[nH]2)c1	inactive: -4.05%	
COc1cccc(OCCCn2c(-c3ccc(Cl)cc3)nc3ccccc3c2=O)c1	inactive: 5.16%	
CCOC(=O)c1sc2ncn(CC(=O)Nc3cccc(C)c3)c(=O)c2c1C		inactive
O=C(NCc1ccccc1Cl)c1ccc2c(c1)N(Cc1ccccc1)C(=O)c1ccccc1S2		inactive
CCOC(=O)c1[nH]c2ccccc2c1NC(=O)c1c(F)cccc1F		inactive
COc1ccc(Nc2ncc(C(=O)N3CCN(c4ccc(OC)cc4)CC3)c3ccccc23)cc1		inactive
O=C(c1ccc2c(c1)CCN2S(=O)(=O)c1ccc(Cl)cc1)N1CCN(c2ccccc2F)CC1	inactive: 19.8%	
Cc1ccccc1Cn1c(=O)n(Cc2ccco2)c(=O)c2oc3ccccc3c21	inactive: 0.177%	
CCCCNC(=O)c1cnc2sc(N3CCCCC3)nn2c1=O	inactive: -8.9%	
CCOC(=O)C1CCN(C(=O)c2nn(-c3ccc(C)cc3)c(=O)c3c2c2ccccc2n3C)CC1	inactive: -9.52%	
CCC(CC)C(=O)Nc1ccc(OCc2cc(=O)n3ccc(C)cc3n2)cc1		inactive
CCOc1ccccc1N1CC(c2nc3ccccc3n2CCCOc2ccccc2)CC1=O (centres undefined)	inactive: 2.68%	
CC(C)N(Cc1ccccc1)C(=O)c1cc2ccc3cccnc3c2[nH]1	inactive: 7.34%	
Cc1nc2c(c(SCC(=O)Nc3ccccc3C(F)(F)F)n1)CCC2	inactive: -9.24%	
Cc1cc(OC(C)C(=O)N2CCN(CCc3ccccn3)CC2)ccc1Cl (centres undefined)	inactive: -7.39%	
Cc1c(F)cccc1NS(=O)(=O)c1cccs1	inactive: 17.8%	
CN(C)c1ccc(CN2CCc3nc(N4CCN(c5ccccn5)CC4)ncc3C2)cc1	inactive: -12.7%	
O=C(Cc1csc2ccccc12)NCc1ccc(F)cc1	inactive: -3.76%	
O=C(Nc1ccc(OC(F)(F)F)cc1)C1CCCN(S(=O)(=O)c2ccc(Br)s2)C1 (centres undefined)	inactive: 9.69%	
COc1ccc(S(=O)(=O)NC(C)C)cc1-n1cnnn1	inactive: -6.47%	
Cc1ccccc1Nc1nnc(-c2ccc(C)c(S(=O)(=O)N3CCN(C)CC3)c2)c2ccccc12		inactive
